Test results taken from patent publication US20190241639A1 (ZHEJIANG DOER BIOLOGICS, published 2019).

molecular target: GLP-2 receptor; experiment: cell-based or functional assay

| Binder | EC50 (nM), luciferase reporter gene assay in GLP-2R/Luc-CHO cells |
| --- | --- |
| GLP-2 mutant fusion protein SEQ ID NO:18 (Fc fusion) HGDGSFSDEMNTILDNLAARDFINWLIQTKITDGGGGSGGGGSGPEGAPGPS[human IgG4 Fc with S228P N297A (EU numbers) omitted] | 10.7 nM |
| GLP-2 mutant fusion protein SEQ ID NO:25 (Fc fusion) HGDGSFSDEMNTILDNLAARDFINWLIQTKGGGGSGGGGS[human IgG4 Fc with S228P N297A (EU numbers) omitted] | 83.4 nM |
| GLP-2 mutant fusion protein SEQ ID NO:13 (Fc fusion) HGDGSFSDEMNTILDNLAARDFINWLIQTKITDGGGGSGGGGSGPQ[human IgG1 Fc with changes omitted] | 19.6 nM |
| GLP-2 mutant fusion protein SEQ ID NO:9 (Fc fusion) HGDGSFSDEMNTILDNLAARDFINWLIQTKITD[human IgG4 Fc with S228P N297A (EU numbers) omitted] | 85.8 nM |
| GLP-2 mutant fusion protein SEQ ID NO:14 (Fc fusion) HGDGSFSDEMNTILDNLAARDFINWLIQTKITDGGGGSGGGGSGGGGSGPA[human IgG4 Fc with S228P N297A (EU numbers) omitted] | 21.9 nM |
| GLP-2 mutant fusion protein SEQ ID NO:11 (Fc fusion) HGDGSFSDEMNTILDNLAARDFINWLIQTKITDGGGGSGGGGSGGGGS[human IgG4 Fc with S228P N297A (EU numbers) omitted] | 92.6 nM |
| GLP-2 mutant fusion protein SEQ ID NO:15 (Fc fusion) HGDGSFSDEMNTILDNLAARDFINWLIQTKITDGGGGSGGGGSGGGGSGGGGSGGGGSGPD[human IgG4 Fc with S228P N297A (EU numbers) omitted] | 24.1 nM |
| GLP-2 mutant fusion protein SEQ ID NO:12 (Fc fusion) HGDGSFSDEMNTILDNLAARDFINWLIQTKITDGGGGSGPA[human IgG4 Fc with S228P N297A (EU numbers) omitted] | 25.8 nM |
| GLP-2 mutant fusion protein SEQ ID NO:10 (Fc fusion) HGDGSFSDEMNTILDNLAARDFINWLIQTKITDGGGGS[human IgG4 Fc with S228P N297A (EU numbers) omitted] | 80.2 nM |

The remaining lines, values ahead:

| EC50 (nM), luciferase reporter gene assay in GLP-2R/Luc-CHO cells | Binder |
| --- | --- |
| 95.8 nM | GLP-2 mutant fusion protein SEQ ID NO:24 (Fc fusion) HGDGSFSDEMNTILDNLAARDFINWLIGGGGS[human IgG4 Fc with S228P N297A (EU numbers) omitted] |
| 13.1 nM | GLP-2 mutant fusion protein SEQ ID NO:20 (Fc fusion) HGDGSFSDEMNTILDNLAARDFINWLIQTKITDGGGGSGGGGSGPSGAPGPPGPSGAPGPPGPSGAPGPP[human IgG4 Fc with S228P N297A (EU numbers) omitted] |
| 6.4 nM | GLP-2 mutant fusion protein SEQ ID NO:17 (Fc fusion) HGDGSFSDEMNTILDNLAARDFINWLIQTKITDGGGGSGGGGSGPPGPA[human IgG1 Fc with changes omitted] |
| 7.8 nM | GLP-2 mutant fusion protein SEQ ID NO:16 (Fc fusion) HGDGSFSDEMNTILDNLAARDFINWLIQTKITDGGGGSGGGGSGPPGPA[human IgG4 Fc with S228P N297A (EU numbers) omitted] |
| 11 nM | GLP-2 mutant fusion protein SEQ ID NO:19 (Fc fusion) HGDGSFSDEMNTILDNLAARDFINWLIQTKITDGGGGSGGGGSGPSGAPGPPGPEGPA[human IgG4 Fc with S228P N297A (EU numbers) omitted] |
